The supplement of paper PMC4967469
IC50 is the fitted dose that halves viability relative to control wells, and lower means more sensitive; a limit (>, <) means that the fit lies beyond the doses tested. AUC, from the same fit, is the share of area under the viability curve across the 256-fold dose range: 1 means no effect, lower means more sensitive. For part of these data: An inferred top dose was calculated from the reported fits. For part of these data: Drugs with an entry number were screened twice under separate entries, and the two screens often disagree.

How the values were obtained:
Assay in all cases: Viability of human cancer cell lines after 72 h of drug (GDSC screen)
SNX-2112 = compound: CC1(C)CC(=O)c2c(C(F)(F)F)nn(-c3ccc(C(N)=O)c(N[C@H]4CC[C@H](O)CC4)c3)c2C1 [SNX-2112]; settings: top dose 2.56 µM
Procedure: (§1)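 Human cancer cell lines in 384-well plates, medium with 10% serum, drug for 72 h over a 256-fold dose range (nine 2-fold or five 4-fold steps up to the top dose). Adherent lines were fixed and stained with the nucleic acid dye Syto60, suspension lines read with resazurin; signal relative to control wells, capped at 0 and 100%. One two-parameter sigmoid per drug and line, fitted in a mixed model over all curves with the slope shared within a line.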

Afatinib = compound: CN(C)C/C=C/C(=O)Nc1cc2c(Nc3ccc(F)c(Cl)c3)ncnc2cc1O[C@H]1CCOC1 [Afatinib]
Procedure: as §1

XMD13-2 = compound: O=C(NC1CC1)c1cccc(-c2ccc3c(NC(=O)C4CC4)n[nH]c3c2)c1 [XMD13-2]; settings: top dose 10.24 µM; top dose inferred
Procedure: as §1

PF-562271 = compound: CN(c1ncccc1CNc1nc(Nc2ccc3c(c2)CC(=O)N3)ncc1C(F)(F)F)S(C)(=O)=O [PF-562271]; settings: top dose 2.56 µM; top dose inferred
Procedure: as §1

Vinblastine = compound: CC[C@]1(O)C[C@@H]2CN(CCc3c([nH]c4ccccc34)[C@@](C(=O)OC)(c3cc4c(cc3OC)N(C)[C@H]3[C@@](O)(C(=O)OC)[C@H](OC(C)=O)[C@]5(CC)C=CCN6CC[C@]43[C@@H]65)C2)C1 [Vinblastine]; settings: top dose 0.1 µM; top dose inferred
Procedure: as §1

[1] = top dose 0.5 µM, screen: GDSC drug entry 1032
[2] = top dose 10 µM, screen: GDSC drug entry 1377, top dose inferred

Row | Cell Line | AUC (SNX-2112) | IC50 (SNX-2112) [µM] | AUC (Afatinib; [1]) | IC50 (Afatinib; [1]) [µM] | AUC (Afatinib; [2]) | IC50 (Afatinib; [2]) [µM] | AUC (XMD13-2) | IC50 (XMD13-2) [µM] | AUC (PF-562271) | IC50 (PF-562271) [µM] | AUC (Vinblastine) | IC50 (Vinblastine) [µM]
1 | MDST8 (large intestine, adherent) | 0.404 | 0.0876 | 0.951 | > 0.5 | 0.942 | > 10 | 0.962 | > 10.2 | 0.973 | > 2.56 | 0.525 | 0.00729
2 | HEC-1 (endometrium, adherent) | 0.983 | > 2.56 | 0.948 | > 0.5 | 0.987 | > 10 | 0.981 | > 10.2 | 0.955 | > 2.56 | 0.588 | 0.0108
3 | SK-HEP-1 (liver, adherent) | 0.857 | 1.87 | 0.985 | > 0.5 | 0.987 | > 10 | 0.982 | > 10.2 | 0.933 | > 2.56 | 0.62 | 0.013
4 | HuO-3N1 (osteosarcoma, adherent) | 0.917 | > 2.56 | 0.983 | > 0.5 | 0.968 | > 10 | 0.955 | > 10.2 | 0.959 | > 2.56 | 0.619 | 0.0148
5 | OVKATE (ovary, adherent) | 0.941 | > 2.56 | 0.953 | > 0.5 | 0.974 | > 10 | 0.978 | > 10.2 | 0.979 | > 2.56 | 0.928 | > 0.1
6 | NCI-SNU-1 (stomach, suspension) | 0.298 | 0.0422 | 0.986 | > 0.5 | 0.987 | > 10 | 0.927 | > 10.2 | 0.933 | > 2.56 | 0.905 | > 0.1
7 | WM35 (melanoma, adherent) | 0.312 | 0.0475 | 0.461 | 0.0244 | 0.967 | > 10 | 0.811 | 5.51 | 0.664 | 0.459 | 0.366 | 0.00266
8 | KP-3 (pancreas, adherent) | 0.663 | 0.496 | 0.972 | > 0.5 | 0.91 | > 10 | 0.948 | > 10.2 | 0.958 | > 2.56 | 0.738 | 0.0345
9 | G-MEL (melanoma, adherent) | 0.887 | > 2.56 | 0.986 | > 0.5 | 0.967 | > 10 | 0.825 | 6.04 | 0.984 | > 2.56 | 0.358 | 0.00254
10 | RPMI-7951 (melanoma, adherent) | 0.244 | 0.03 | 0.967 | > 0.5 | 0.984 | > 10 | 0.969 | > 10.2 | 0.895 | > 2.56 | 0.384 | 0.00303
11 | GB-1 (glioma, adherent) | 0.308 | 0.0416 | 0.975 | > 0.5 | 0.945 | > 10 | 0.961 | > 10.2 | 0.923 | > 2.56 | 0.765 | 0.0429
12 | T47D (breast, adherent) | 0.74 | 1.15 | 0.909 | > 0.5 | 0.86 | > 10 | 0.877 | > 10.2 | 0.931 | > 2.56 | 0.659 | 0.022
13 | KU-19-19 (bladder, adherent) | 0.86 | 2.14 | 0.889 | > 0.5 | 0.986 | > 10 | 0.973 | > 10.2 | 0.969 | > 2.56 | 0.687 | 0.0209
14 | OVMIU (ovary, adherent) | 0.471 | 0.131 | 0.382 | 0.0136 | 0.237 | 0.0871 | 0.962 | > 10.2 | 0.881 | > 2.56 | 0.567 | 0.00997
15 | NKM-1 (acute myeloid leukaemia, suspension) | 0.085 | < 0.01 | 0.961 | > 0.5 | 0.914 | > 10 | 0.83 | 6.7 | 0.808 | 1.37 | 0.279 | 0.00144
16 | SiHa (cervix, adherent) | 0.984 | > 2.56 | 0.986 | > 0.5 | 0.977 | > 10 | 0.987 | > 10.2 | 0.98 | > 2.56 | 0.846 | 0.0907
17 | ES1 (Ewing sarcoma, adherent) | 0.278 | 0.038 | 0.984 | > 0.5 | 0.949 | > 10 | 0.651 | 1.66 | 0.915 | > 2.56 | 0.509 | 0.0066
18 | KARPAS-620 (haematopoietic neoplasm, suspension) | 0.318 | 0.054 | 0.991 | > 0.5 | 0.984 | > 10 | 0.638 | 1.45 | 0.979 | > 2.56 | 0.582 | 0.0101
